Molecular target: T1, BCMA (the 'Antigen' of the SPR antigen binding assay) (human, UniProt Q02223 1-54, limits assumed)
T1 construct: also called human BCMA
T1 sequence (looked up): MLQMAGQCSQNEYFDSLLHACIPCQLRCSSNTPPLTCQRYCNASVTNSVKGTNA
Assay: SPR, release and stability method, specific binding activity
Method: Antigen, FcγRIIIa, and FcRn specific binding activity of the purified DL variants was measured using SPR. Antigen, FcγRIIIa and FcRN analyses were performed using a release and stability surface plasmon resonance (SPR) method. The specific binding activities measured were between 80-110% for the purified DL variants. […] Despite the trend observed, the decrease in binding activity as a function of drug load is minimal and remains within specification acceptance criteria. It has been observed that as the DAR increases, there is no significant change in antigen FcγRIIIa binding by SPR and antibody-dependent cell-mediated cytotoxicity (ADCC) activity.

B1: purified DL6 drug-load variant of belantamab mafodotin (antibody, human IgG1, kappa)
heavy: QVQLVQSGAEVKKPGSSVKVSCKASGGTFSNYWMHWVRQAPGQGLEWMGATYRGHSDTYYNQKFKGRVTITADKSTSTAYMELSSLRSEDTAVYYCARGAIYDGYDVLDNWGQGTLVTVSS[… human IgG1 constant region …]
light: DIQMTQSPSSLSASVGDRVTITCSASQDISNYLNWYQQKPGKAPKLLIYYTSNLHSGVPSRFSGSGSGTDFTLTISSLQPEDFATYYCQQYRKLPWTFGQGTKLEIKRTVAAPSVFIFPPSDEQLKSGTASVVCLLNNFYPREAKVQWKVDNALQSGNSQESVTEQDSKDSTYSLSSTLTLSKADYEKHKVYACEVTHQGLSSPVTKSFNRGEC
modifications: mcMMAF on LC C214 of one of the two light chains (sequential numbering); mcMMAF on HC C230 and HC C233 of both heavy chains and on HC C224 of one heavy chain (sequential numbering)
notes: Antibody drug conjugate, drug load of six; also called DL6a
For B1, the “Antigen Binding (%) (specific binding activity)” value was 89%.

Source: patent US20240369568A1 (GlaxoSmithKline, published 2024)
